What all share (settings): 20 mM HEPES pH 7.9, 100 mM NaCl, 1 mM DTT, 0.2 mg/mL BSA, 0.02% Triton X-100, 2% milk, 0.4 mg/mL salmon testes DNA; 1 h; temperature not stated; high values mean tight binding; double strand, one strand shown; sequences stand for … in GCCTAGCAC…GTGCTAGGTCTTGATTCGCTTGACGCTGCTG
One assay addresses PU.1 (IVT) (UniProt P17947). The experiment in a line: protein-binding microarray (PBM).
The target of assay [1] is PU.1 (endogenous, THP-1 nuclear extract) (UniProt P17947). As to the kind of experiment: nuclear extract protein-binding microarray (nextPBM).
Assay [2] deals with T1, FLI1 (endogenous, THP-1 nuclear extract) (UniProt Q01543).
T1 sequence: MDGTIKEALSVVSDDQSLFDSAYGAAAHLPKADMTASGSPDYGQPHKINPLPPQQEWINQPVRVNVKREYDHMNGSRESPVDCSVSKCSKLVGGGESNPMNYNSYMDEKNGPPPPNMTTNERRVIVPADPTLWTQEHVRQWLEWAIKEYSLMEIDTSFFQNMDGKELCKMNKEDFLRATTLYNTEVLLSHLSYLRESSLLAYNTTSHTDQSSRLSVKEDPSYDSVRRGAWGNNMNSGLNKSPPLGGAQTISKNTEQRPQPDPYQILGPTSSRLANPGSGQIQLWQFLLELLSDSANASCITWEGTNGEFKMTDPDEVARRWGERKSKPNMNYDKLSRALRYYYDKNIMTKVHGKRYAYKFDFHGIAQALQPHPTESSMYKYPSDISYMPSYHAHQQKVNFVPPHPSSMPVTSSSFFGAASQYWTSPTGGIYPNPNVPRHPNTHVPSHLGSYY
Described as above.

The list shows a part of the results. For part of these data: At the low end of the ranking the order means little. For part of these data: The protein was read in a cell extract, so binding may be indirect.

For the sequence GAGAAGGGGAAGTGAGTGCC, the binding signal came out at 5.61 z-score with PU.1 (IVT), 6.26 z-score in assay [1] and 2.45 z-score in assay [2].
With AAAAAAAAGAACTGGCTAGA, the binding signal with PU.1 (IVT) was 0.758 z-score; in assay [1] it was 0.607 z-score; in assay [2] it was -0.0256 z-score.
Turning to TGAAAGGGGAAGTGAGCTGC, the binding signal was 6.48 z-score with PU.1 (IVT), 6.78 z-score in assay [1] and 3 z-score in assay [2].
The matching figures for GGAAGGAGGAAGTCAGCTTG: 4.76 z-score, 5.42 z-score and 2.79 z-score.
As to TTAAAGAGGAAGTGGAGAGA, the binding signal was found to be 6.29 z-score in the assay with PU.1 (IVT), 6.7 z-score in assay [1] and 3.32 z-score in assay [2].
Taken in the same sequence, the figures for TAGATGAGGAAGTAGCTCAA were 5.68 z-score, 6.49 z-score and 2.41 z-score.
Take GAAAAGGGGAAGTGTGCTAC: the binding signal in the assay with PU.1 (IVT) was found to be 7.48 z-score; in assay [1] it was 6.93 z-score; in assay [2] it was 3.44 z-score.
Taken in the same sequence, the figures for AAAAAAAGGCACTGGCTAGA were -0.164 z-score, -0.0472 z-score and -0.787 z-score.
Taken in the same sequence, the figures for ACAAAAAGGAACTTTGCCCC were 2.53 z-score, 1.78 z-score and 0.606 z-score.
Taken in the same sequence, the figures for AATAAGAGGAAATGAATGCA were 3.07 z-score, 3.14 z-score and 2.23 z-score.
With AAAAAGGGGAAGTCAATTTT, the binding signal with PU.1 (IVT) worked out at 8.55 z-score; in assay [1], 7.53 z-score; in assay [2] it was 3.57 z-score.
In the case of AGAAAGAGGAACTGAAAAGT, the binding signal in the assay with PU.1 (IVT) was 6.62 z-score; in assay [1], 6.88 z-score; in assay [2], 2.62 z-score.
Taken in the same sequence, the figures for GGAATGAGGAACTGGCTGGC were 5.27 z-score, 5.96 z-score and 1.73 z-score.
The matching figures for GAAAAGAGGAAGTGTGTTCT: 8.27 z-score, 7.41 z-score and 3.84 z-score.
The matching figures for CATTTGGGGAAGTGACCTTC: 5.59 z-score, 6.16 z-score and 2.15 z-score.
As to CAAAATGGGAAGTGGATGCT, the binding signal with PU.1 (IVT) was 5.18 z-score; in assay [1] it was 5.24 z-score; in assay [2], 2.25 z-score.
The matching figures for AAAAGAAGGAACTGGCTAGA: 3.16 z-score, 3.17 z-score and 1.01 z-score.
As to GGGAGGAGGAAGTGGAGGGC, the binding signal in the assay with PU.1 (IVT) came out at 4.16 z-score; in assay [1] it was 4.32 z-score; in assay [2], 2.62 z-score.
On to CAAATGAGGAACTGATGCGT, for which the binding signal came to 6.08 z-score with PU.1 (IVT), 6.39 z-score in assay [1] and 2.31 z-score in assay [2].
Taken in the same sequence, the figures for GGTTTGAGGAAGTGGTTTGA were 6.58 z-score, 6.72 z-score and 2.94 z-score.
The matching figures for TCATAGAGGAAGTGACACTG: 4.52 z-score, 5.19 z-score and 3.02 z-score.

(Values after publication PMC6451091.)
